{
  "source": "PubChem BioAssay AID624170",
  "about": "(National Center for Advancing Translational Sciences (NCATS), 2012)",
  "note": "Several values for one entry are separate records, joined by “and”; a condition that tells them apart may be missing. Equal values may be shown once. About 850 (0.21%) of roughly 410,000 compounds were called active. The shares of active, inactive and inconclusive entries below differ from those in the screen. Calls follow the shape of the dose curve; as a rule, active = well fitted inhibition curve with a large enough effect; inconclusive = small, poorly fitted or top-dose-only effect, or another doubt; inactive = no such curve, though single readings can be large or run the other way. Where the call is inconclusive, the potency comes from a doubtful curve fit. % is scaled to controls: 0 for no effect and ±100 for the full control effect; potency is read from the fitted curve at half-maximal effect; tags tell the direction and shape of the fitted curve.",
  "data": [
    {"target": "Glutaminase kidney isoform, mitochondrial (Homo sapiens) (UniProt O94925)", "sequence (O94925 whole entry, looked up, canonical isoform)": "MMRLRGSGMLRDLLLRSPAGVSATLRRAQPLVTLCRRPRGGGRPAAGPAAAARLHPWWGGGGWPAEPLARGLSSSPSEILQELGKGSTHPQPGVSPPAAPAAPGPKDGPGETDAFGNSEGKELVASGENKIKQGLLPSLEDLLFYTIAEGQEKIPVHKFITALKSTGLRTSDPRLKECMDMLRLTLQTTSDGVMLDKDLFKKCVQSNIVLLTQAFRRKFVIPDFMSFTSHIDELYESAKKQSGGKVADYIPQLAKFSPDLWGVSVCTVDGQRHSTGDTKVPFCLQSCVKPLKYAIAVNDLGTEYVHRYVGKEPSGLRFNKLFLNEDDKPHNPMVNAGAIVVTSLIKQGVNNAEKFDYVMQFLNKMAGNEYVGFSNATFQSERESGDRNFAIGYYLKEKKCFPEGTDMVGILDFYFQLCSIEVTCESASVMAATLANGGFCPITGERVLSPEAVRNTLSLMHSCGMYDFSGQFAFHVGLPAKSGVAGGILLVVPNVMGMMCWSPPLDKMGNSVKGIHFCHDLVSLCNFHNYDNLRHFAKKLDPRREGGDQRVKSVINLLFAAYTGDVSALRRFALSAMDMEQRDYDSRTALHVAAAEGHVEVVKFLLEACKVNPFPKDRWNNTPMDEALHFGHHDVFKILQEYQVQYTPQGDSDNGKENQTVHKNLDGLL", "assay": "qHTS for Inhibitors of Glutaminase (GLS)", "conditions": "GLS enzymatic activity, qHTS titration; series mostly up to 45.5 µM; activity change, negative = inhibition: at the top concentration", "how_it_was_run": "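Two-point fluorescence kinetic (t0, 30 min RT) for hKGA; glutamate detected via glutamate oxidase–HRP–Amplex Red. Substrate: 1 mM L-glutamine solution; buffer 45 mM KH2PO4, pH 8.2.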", "values": [
      {"smiles": "Cc1cc(C(=O)NNC(=S)Nc2ccccc2)nn1C", "Potency": "inconclusive: 25.1 µM [inhibitor, single point]"},
      {"smiles": "Cc1ccc(-n2nc3c(c2NC(=O)c2cccs2)CS(=O)(=O)C3)cc1", "activity change, negative = inhibition": "inactive: 12.3%"},
      {"smiles": "O=C(CSc1ncn[nH]1)N1N=C2/C(=C/c3ccco3)CCCC2C1c1ccco1", "note": "(stereo unspecified)", "Potency": "inconclusive: 35.5 µM [inhibitor, single point]"},
      {"smiles": "Cc1ccc([N+](=O)[O-])cc1Nc1nc(N2CCOCC2)nc(N2CCOCC2)n1", "Potency": "inconclusive: 3.98 µM [inhibitor, single point]"},
      {"smiles": "C=CCOc1cccc(CNc2ccc3[nH]c(=O)[nH]c3c2)c1", "Potency": "inconclusive: 12.6 µM [inhibitor, partial curve]"},
      {"smiles": "O=[N+]([O-])c1cccc(/C=N/n2c(-c3cccnc3)n[nH]c2=S)c1", "Potency": "inconclusive: 14.1 µM [inhibitor, single point]"},
      {"smiles": "Cn1cc(CN2CCC(C(=O)Nc3ccc(Oc4ccccc4F)cc3)CC2)cn1", "activity change, negative = inhibition": "inactive: -11.4%"},
      {"smiles": "CC(SCc1cc(=O)n2c([nH]c3ccccc32)c1C#N)C(=O)O", "note": "(stereo unspecified)", "Potency": "inconclusive: 35.5 µM [inhibitor, single point]"},
      {"smiles": "CCCCNC(=O)C1(NC(=O)Nc2ccc(C)cc2)CCCCC1", "Potency": "inconclusive: 22.4 µM [inhibitor, single point]"},
      {"smiles": "CC(C)CN(C(=O)COC(=O)c1ccc2c(c1)OCO2)c1c(N)n(Cc2ccccc2)c(=O)[nH]c1=O", "activity change, negative = inhibition": "inactive: 6.07%"},
      {"smiles": "Cn1cccc1Cc1nnc(SCC(=O)Nc2cccc(F)c2)n1-c1ccc(F)cc1", "activity change, negative = inhibition": "inactive: 1.98%"},
      {"smiles": "CCCc1nnc(SCc2ccc(OC)cc2)n1N", "Potency": "inconclusive: 35.5 µM [inhibitor, single point]"},
      {"smiles": "COc1cccc(CN2CCN(C(=O)c3cccc(OC)c3)CC2)c1", "activity change, negative = inhibition": "inactive: -3.89%"},
      {"smiles": "Nc1ccc(/C=C/c2ccc(N)cc2S(=O)(=O)O)c(S(=O)(=O)O)c1", "Potency": "active: 11.2 µM"},
      {"smiles": "CCNC(=O)NC(=O)COC(=O)c1cccc(NS(=O)(=O)/C=C/c2ccccc2)c1", "activity change, negative = inhibition": "inactive: -1.41%"},
      {"smiles": "C=CCNC1=C(Cl)C(=O)N(c2cccc(Cl)c2Cl)C1=O", "Potency": "inconclusive: 22.4 µM [inhibitor, single point]"},
      {"smiles": "COc1cccc(-c2nc(CS(=O)(=O)CC(=O)NC3CCCCCC3)c(C)o2)c1", "Potency": "inconclusive: 5.62 µM [inhibitor, single point]"},
      {"smiles": "COc1ccc(O)c(C(c2c(C)[nH][nH]c2=O)c2c(C)[nH][nH]c2=O)c1", "Potency": "inconclusive: 35.5 µM [inhibitor, single point]"},
      {"smiles": "O=[N+]([O-])c1cccc(-c2csc(N/N=C/c3cccc(O)c3)n2)c1", "Potency": "inconclusive: 22.4 µM [inhibitor, partial curve, poor fit]"},
      {"smiles": "CCOC(=O)CN1C(=O)CN(c2ccc(C)cc2)C1=O", "activity change, negative = inhibition": "inactive: -12.5%"},
      {"smiles": "CN(C)S(=O)(=O)c1cc(NC(=O)CN2CCN(c3ccc(O)cc3)CC2)ccc1Cl", "Potency": "inconclusive: 15.8 µM [inhibitor, single point]"},
      {"smiles": "CC1=[N+]([O-])C(C)(C)N(O)C1(C)C", "Potency": "inconclusive: 11.2 µM [inhibitor, partial curve]"},
      {"smiles": "C=CCn1c(-c2cc3c(s2)CCC(CC)C3)n[nH]c1=S", "note": "(stereo unspecified)", "Potency": "inconclusive: 11.2 µM [inhibitor, single point]"},
      {"smiles": "O=[N+]([O-])c1ccc(SCCc2ccncc2)cc1", "Potency": "inconclusive: 35.5 µM [inhibitor, single point]"},
      {"smiles": "FC(F)(F)c1ccccc1CN1CCCC(N2CCN(c3ccccc3)CC2)C1", "note": "(stereo unspecified)", "activity change, negative = inhibition": "inactive: 21.7%"},
      {"smiles": "c1ccc(CCc2nn3c(Cn4cnc5ccccc54)nnc3s2)cc1", "Potency": "inconclusive: 1.78 µM [inhibitor, full curve]"},
      {"smiles": "CCOC(=O)c1c(C)[nH]c(C)c1S(=O)(=O)N1CCCC(C(=O)Nc2ccc(C)cn2)C1", "note": "(stereo unspecified)", "activity change, negative = inhibition": "inactive: 3.23%"},
      {"smiles": "O=C(O)c1ccc2nc(-c3cc4cccc(O)c4oc3=O)[nH]c2c1", "Potency": "inconclusive: 8.91 µM [inhibitor, partial curve, poor fit]"},
      {"smiles": "Cc1cc2c3c([nH]c2cc1S(=O)(=O)N1CCC2(CC1)OCCO2)CCCC3=O", "Potency": "inconclusive: 6.31 µM [inhibitor, single point]"},
      {"smiles": "CCOc1cc(/C=C/C(=O)c2ccc(OC)c(CN3CCOCC3)c2)cc(Br)c1O", "activity change, negative = inhibition": "inactive: 3.82%"},
      {"smiles": "Cc1cc(C)cc(NC(=O)CN2C(=O)NC(Cc3c[nH]c4ccccc34)C2=O)c1", "note": "(stereo unspecified)", "activity change, negative = inhibition": "inactive: -2.71%"},
      {"smiles": "O=C(N/N=C/c1ccncc1)c1cc2ccccc2cc1O", "Potency": "inconclusive: 22.4 µM [inhibitor, partial curve, poor fit]"},
      {"smiles": "CCOC(=O)/C=C1\\Nc2ccccc2OC1=O", "activity change, negative = inhibition": "inactive: 21.9%"},
      {"smiles": "Cc1[nH]nc2c1C(c1ccoc1)C(C#N)=C(N)O2", "note": "(stereo unspecified)", "Potency": "inconclusive: 15.8 µM [inhibitor, single point]"},
      {"smiles": "Cc1ccn2cc(CC(=O)O)nc2c1", "Potency": "inconclusive: 35.5 µM [inhibitor, single point]"},
      {"smiles": "Cc1nnc(N2CCC(C(=O)N3CCCCCC3)CC2)c2nn(-c3ccc(Cl)cc3)c(C)c12", "Potency": "inconclusive: 35.5 µM [inhibitor, partial curve, poor fit]"},
      {"smiles": "O=C(Nc1nc(-c2ccccn2)cs1)C1COc2ccccc2O1", "note": "(stereo unspecified)", "activity change, negative = inhibition": "inactive: 11.6%"},
      {"smiles": "COc1ccc(N2C(=O)CC(Sc3n[nH]c(-c4ccc(C)cc4)n3)C2=O)cc1", "note": "(stereo unspecified)", "Potency": "inconclusive: 28.2 µM [inhibitor, single point]"},
      {"smiles": "CCCCCOC(=O)c1[nH]c2c(c1C)C(=O)C(C(=O)OC)C(C)C2", "note": "(stereo unspecified)", "Potency": "inconclusive: 31.6 µM [inhibitor, single point]"},
      {"smiles": "COc1ccc(C2/C(=C(/O)c3ccccc3)C(=O)C(=O)N2c2ncccn2)cc1OC", "note": "(stereo unspecified)", "Potency": "active: 8.91 µM"},
      {"smiles": "CCC(=O)N1CCN(c2nc(CC)nc3sc4c(c23)CCCC4)CC1", "activity change, negative = inhibition": "inactive: -2.19%"},
      {"smiles": "CCOc1ccc(N2C(=O)C3Sc4[nH]c(=O)sc4C(c4ccc(OC)c(OC)c4)C3C2=O)cc1", "note": "(stereo unspecified)", "Potency": "inconclusive: 35.5 µM [inhibitor, single point]"},
      {"smiles": "COc1ccc(NC(=O)C2CC2(Cl)Cl)cc1S(=O)(=O)N1CCCCC1", "note": "(stereo unspecified)", "activity change, negative = inhibition": "inactive: 0.247%"},
      {"smiles": "CC(C)=NNc1nc2c(c(=O)n(C)c(=O)n2C)n1CCc1ccccc1", "Potency": "inconclusive: 12.6 µM [inhibitor, partial curve]"},
      {"smiles": "CCC1CCCCN1C(=O)CCCOc1ccccc1", "note": "(stereo unspecified)", "Potency": "inconclusive: 35.5 µM [inhibitor, single point]"},
      {"smiles": "O=C(CS(=O)(=O)c1ccccc1)c1cc2cc(F)ccc2oc1=O", "Potency": "inconclusive: 35.5 µM [inhibitor, single point]"},
      {"smiles": "COc1ccc2nc3oc(C(=O)N4CCN(c5cc(C)ccc5C)CC4)cc3cc2c1", "activity change, negative = inhibition": "inactive: -17%"},
      {"smiles": "CCCCn1nnnc1C(CCSC)N1CCN(C/C=C/c2ccccc2)CC1", "note": "(stereo unspecified)", "activity change, negative = inhibition": "inactive: -2.96%"},
      {"smiles": "Cc1nn(CC(=O)Nc2nnc(CC(=O)N3CCCC3)s2)c(=O)c2ccccc12", "activity change, negative = inhibition": "inactive: 5.56%"},
      {"smiles": "COC(=O)c1ccccc1NC(=O)Cn1c(CCC(=O)O)ccc1-c1cccs1", "Potency": "inactive"},
      {"smiles": "CC(Cc1cnccn1)NC(=O)c1cc(COc2ccc(F)cc2F)on1", "note": "(stereo unspecified)", "activity change, negative = inhibition": "inactive: -2.68%"},
      {"smiles": "CN(C(=O)Cn1cnc2onc(-c3ccc(F)cc3)c2c1=O)c1ccccc1Cl", "Potency": "inconclusive: 35.5 µM [inhibitor, single point]"},
      {"smiles": "CCS(=O)(=O)Nc1ccc(C2=NN(C(=O)c3ccco3)C(c3cccs3)C2)cc1", "note": "(stereo unspecified)", "activity change, negative = inhibition": "inactive: -12.1%"},
      {"smiles": "CC(C)CC(=O)NC(=S)Nc1sc2c(c1C(N)=O)CCC2", "activity change, negative = inhibition": "inactive: 2%"},
      {"smiles": "CN1CCN(C(=O)C2=C[C@@H](c3ccc(C(F)(F)F)cc3)C[C@@H](OCc3ccc(CO)cc3)O2)CC1", "activity change, negative = inhibition": "inactive: 0.995%"},
      {"smiles": "NC(=O)Cn1cc(/C=N\\NS(=O)(=O)c2ccc(F)cc2)c2ccccc21", "Potency": "inconclusive: 35.5 µM [inhibitor, single point]"},
      {"smiles": "O=C1C=CC(=O)N1CCNc1ncc(C(F)(F)F)cc1Cl", "Potency": "inconclusive: 35.5 µM [inhibitor, partial curve, poor fit]"},
      {"smiles": "O=C(O)c1ccccc1N/N=C/C1=C(N2CCOCC2)C(=C\\c2ccccc2)/CC1", "Potency": "inconclusive: 12.6 µM [inhibitor, partial curve]"},
      {"smiles": "COc1ccc(CO/N=C/c2c(C)[nH]c(=O)[nH]c2=O)cc1", "activity change, negative = inhibition": "inactive: 3.67%"},
      {"smiles": "O=C(NNc1cc(Cl)ccc1Cl)c1cccs1", "Potency": "active: 12.6 µM"},
      {"smiles": "O=C(O)c1ccc(-n2cccc2/C=C2/NC(=O)N(c3cccc(Cl)c3)C2=O)cc1", "Potency": "inconclusive: 31.6 µM [inhibitor, single point]"},
      {"smiles": "O=C(CCSCc1cccc(Cl)c1)NCc1ccc(F)cc1Cl", "activity change, negative = inhibition": "inactive: 8.15%"},
      {"smiles": "CC(=O)OCC1=C(C(=O)O)N2C(=O)[C@@H](NC(=O)Cc3cccs3)[C@H]2SC1", "Potency": "inconclusive: 35.5 µM [inhibitor, single point] and inconclusive: 20 µM [inhibitor, single point]"},
      {"smiles": "Cc1nn(CC(O)COc2ccc3c(c2)CCC3)c(C)c1C", "note": "(stereo unspecified)", "Potency": "inconclusive: 35.5 µM [inhibitor, single point]"},
      {"smiles": "O=S(=O)(Nc1c(O)ccc2ccccc12)c1cccc2ccccc12", "Potency": "inconclusive: 14.1 µM [inhibitor, partial curve]"},
      {"smiles": "Cc1ccc(NC(=O)CC2Nc3cc(C)c(C)cc3NC2=O)c(C)c1", "note": "(stereo unspecified)", "Potency": "inconclusive: 12.6 µM [inhibitor, partial curve, poor fit]"},
      {"smiles": "Cn1c(SCC(=O)CC(=O)Nc2ccccc2)nnc1-c1ccc(O)cc1", "Potency": "inconclusive: 35.5 µM [inhibitor, single point]"},
      {"smiles": "OCCNC(=S)Nc1ccc2c(c1)OCCO2", "Potency": "inconclusive: 0.631 µM [inhibitor, partial curve, poor fit]"},
      {"smiles": "CS(=O)(=O)c1ccc(Cl)c(NC(=O)CSc2nc3ccccc3c(=O)n2Cc2ccco2)c1", "activity change, negative = inhibition": "inactive: 1.77%"},
      {"smiles": "CCOC(=O)c1cnc(-c2ccccc2O)nc1Cl", "Potency": "inconclusive: 35.5 µM [inhibitor, single point]"},
      {"smiles": "Cc1ccc(NC(=S)N/N=C/c2ccc(Cl)c([N+](=O)[O-])c2)cc1", "activity change, negative = inhibition": "inactive: 8.97%"}
    ]}
  ]
}
